This note sets out measurements from PubChem BioAssay AID1346428 (National Center for Advancing Translational Sciences (NCATS), 2018).

“And” between values parts separate entries of the source, which are not always exact repeats. Identical values can stand only once. The whole screen tested about 48,000 compounds, of which about 1,200 (2.5%) were called active. About 2% were inconclusive and are not listed.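 The calls were made as follows: active = activation of at least 60% and not above a set upper limit (about 1 call in 100 departs from these limits); inconclusive = activation of 40% to 60%, or above that upper limit; inactive = activation under 40%.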 The list shows a part of the results.

UniProt O75388, sequence (O75388 whole entry, looked up): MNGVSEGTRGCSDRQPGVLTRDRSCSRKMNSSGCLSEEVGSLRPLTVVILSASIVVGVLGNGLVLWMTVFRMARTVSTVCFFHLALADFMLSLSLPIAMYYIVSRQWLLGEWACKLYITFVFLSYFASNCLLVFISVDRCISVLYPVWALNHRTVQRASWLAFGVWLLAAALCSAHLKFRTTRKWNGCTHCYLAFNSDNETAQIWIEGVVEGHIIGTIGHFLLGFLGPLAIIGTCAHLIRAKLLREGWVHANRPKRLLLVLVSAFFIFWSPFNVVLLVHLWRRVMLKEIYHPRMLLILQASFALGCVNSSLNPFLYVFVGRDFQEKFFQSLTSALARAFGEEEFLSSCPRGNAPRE

This assay has as its target Probable G-protein coupled receptor 32 (Homo sapiens) (UniProt O75388). Nature of the assay: qHTS for Agonists of Human Resolvin D1 Receptor DRV1. Particulars: CHO-K1 GPR32 beta-arrestin PathHunter luminescence, 90 min; at 76.9 µM; hits give high values; zero percent set by DMSO-only wells. In outline:
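Beta-arrestin recruitment read-out: luminescence from complemented beta-Gal in CHO-K1 GPR32 PathHunter cells, measured 1 h after detection reagent at ambient temperature following 90 min compound exposure at 37 °C; DMSO served as basal (EC0) control.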
(In general: In qHTS, concentration-response curves come from the screen itself.)
Regarding `CC(=O)Nc1cccc(NC(=O)Cc2csc(COc3cccc(C)c3)n2)c1`, the activation was active: 68.9%.
With `CCC(C(=O)Nc1cc(C)ccc1OC)n1nnc(C(=O)OC)c1C(=O)OC` (stereo not drawn), the activation was inactive: -12.1%.
Take `CCOc1ccc(C2c3c(oc4cc(C)c(C)cc4c3=O)C(=O)N2c2ccccn2)cc1` (stereo not drawn): the activation is inactive: 1.42%.
As to `COc1ccc(NS(=O)(=O)c2ccc3c(c2)NC(=O)CCS3)c(OC)c1`, the activation is inactive: 20.9%.
In the case of `CCOc1ccc(C(=O)Nc2ccc3c(c2)N(C(C)=O)CCC3)cc1OCC`, the activation was inactive: -8.02%.
As to `CCc1ccc(S(=O)(=O)N(C(C)=O)c2ccc3oc4c(c3c2)CCCC4)cc1`, the activation was inactive: -2.36%.
For `CC(=O)Nc1ccc(S(=O)(=O)Nc2nc3n(n2)C(c2ccccc2)C=C(c2ccc(Cl)cc2)N3)cc1` (stereo not drawn), the activation is active: 83.5%.
Regarding `CC(=O)N1c2ccc(S(=O)(=O)NCC3CCC(C(=O)Nc4cc(C)cc(C)c4)CC3)cc2CC1C` (stereo not drawn), the activation is inactive: 5.21%.
Regarding `Cc1ccc(C)c(S(=O)(=O)n2nc(C)c(S(=O)(=O)N3CCC(C)CC3)c2C)c1`, the activation was inactive: -11.2%.
As for `Cc1ccc(-n2nc3c(N4CCC(C(=O)N(C)Cc5ccccc5)CC4)nnc(C)c3c2C)cc1`, the activation was inactive: -6.86%.
As for `COc1ccccc1CNC(=O)CCC(=O)N1Cc2ccccc2Oc2ncccc21`, the activation is inactive: -5.89%.
On to `CN(C)c1ccc(CN(Cc2ccco2)C(=O)c2ccc(F)cc2)cc1`, for which the activation is inactive: -31%.
As to `CCN(CC)CCOC(=O)c1ccc(NC(=O)c2cc3cccc(OC)c3oc2=O)cc1`, the activation is inactive: 2.41%.
Regarding `Cn1c(=O)c2c(n3c4ccccc4nc13)NC(=O)CC2c1cccc(Cl)c1` (stereo not drawn), the activation was inactive: -2.17%.
In the case of `COc1ccc(Cl)cc1NC(=O)Cn1nnc(C(=O)NCc2ccc3c(c2)OCO3)c1N`, the activation is active: 112%.
Take `COC(=O)c1sccc1S(=O)(=O)N1CCN(c2ccc(C(C)=O)cc2)CC1`: the activation is inactive: -3.39%.
As for `CCOC(=O)c1c(NC(=O)CSc2cn(CCNC(=O)c3c(F)cccc3F)c3ccccc23)sc2c1CCCC2`, the activation was inactive: 3.68%.
On to `Cc1ccc(-c2cc(C(=O)Nc3c(C(=O)c4ccc(C)c(F)c4)oc4ccccc34)no2)cc1`, for which the activation was inactive: 5.75%.
Turning to `CCOCCc1nn2c(=O)cc(COC(=O)c3cccc(C)c3)nc2s1`, the activation is inactive: -5.72%.
As to `Cc1ccc(C)c(N2CCN(C(=O)C3CCCN(S(=O)(=O)c4cccc5nonc45)C3)CC2)c1` (stereo not drawn), the activation was inactive: 9.85%.
On to `C[C@](N)(Cc1ccc(O)c(O)c1)C(=O)O`, for which the activation is inactive: -28.7% and inactive: 18.7%.
For `Cc1ccc(Cn2c(CN3CCC(C(=O)NCC(C)c4ccccc4)CC3)cc3ccccc32)cc1` (stereo not drawn) the value was inactive: -3.95%; for `CC(=O)c1ccc(NC(=O)c2cc(C3CC3)nc3c2c(C)nn3-c2ccc(C)cc2)cc1`, inactive: 1.1%; for `COc1ccc(S(=O)(=O)NCCc2sc(-c3ccccc3)nc2C)cc1F`, inactive: 11.1%.
With `Cc1ccc(Cl)cc1N1CCN(S(=O)(=O)c2ccc(-c3cnc(C4CC4)o3)cc2)CC1`, the activation is inactive: -17.2%.
`CC(C)c1ccc(NC(=O)c2ccc(F)c(S(=O)(=O)N3CCN(c4ccccc4F)CC3)c2)cc1`: the activation was inactive: -1.62%.
On to `O=C(Nc1ccccc1F)C(Cc1ccccc1)N1Cc2ccccc2C1=O` (stereo not drawn), for which the activation is inactive: -13.9%.
On to `O=C(Cn1cc(S(=O)(=O)N2CCN(c3ccccc3F)CC2)c2ccccc2c1=O)Nc1ccc(F)cc1Cl`, for which the activation is inactive: -10.5%.
For `COc1ccc(S(=O)(=O)NCCc2sc(-c3cccc(F)c3)nc2C)cc1` the value was inactive: 43.5%.
Take `COc1cc2c(C(=O)N3CCN(c4cc(Cl)ccc4C)CC3)cn(CC(C)C)c(=O)c2cc1OC`: the activation is inactive: -4.55%.
`COc1ccc(C(=O)N2CCN(C(=O)COc3ccc(C)cc3)CC2)cc1OC`: the activation was inactive: -27.5%.
With `CC(C)c1ccc(NC(=O)CN2C(=O)CCc3cc(S(=O)(=O)N4CCOCC4)ccc32)cc1` the figure was inactive: 1.99%.
Turning to `COc1ccc(NC(=O)CN2CCN(c3ccccc3F)CC2)c(OC)c1`, the activation was inactive: -7.36%.
As to `CCCOc1ccc(-c2cccc(NS(=O)(=O)c3ccc(CC)cc3)c2)nn1`, the activation was inactive: -8.05%.
As for `CCC(C)NC(=O)CCC(=O)NNc1nc2ccccc2c2nc(C)nn12` (stereo not drawn), the activation was inactive: -4.31%.
As to `CCCSCCCNC(=O)CN1C(=O)CCn2nc(-c3cn(C)c4ccccc34)cc21`, the activation is inactive: -1.43%.
Consider `Cc1cc(C)c(NC(=O)CN(C)S(=O)(=O)c2ccc3c(c2)c(=O)n(C)c(=O)n3C)c(C)c1`, for which the activation was inactive: -12.1%.
For the compound `CCC1=C(c2ccc(C)cc2)S(=O)(=O)N=C1N1CCC(C(=O)NCc2ccc(C)cc2)CC1`, the activation is inactive: -20.1%.
Take `Cc1ccc(NC(=O)CSc2nccn2Cc2ccc3c(c2)OCO3)c(C)c1`: the activation is inactive: -14.3%.
With `c1cnc(N2CCN(Cc3ccc4c(c3)OCO4)CC2)nc1`, the activation is inactive: -9.97% and inactive: -2.02%.
For `COc1cc(NS(=O)(=O)c2ccc(NC(=O)c3ccc(OC)c(Br)c3)cc2)nc(OC)n1`, the activation is inactive: 44.8%.
`CCc1ccc(S(=O)(=O)n2ccnc2)cc1`: the activation was inactive: 11.8%.
`COCCn1c(=NC(=O)c2ccc3c(c2)OCCO3)sc2cc(NC(C)=O)ccc21`: the activation is inactive: -1.88%.
With `Cc1ccc(-c2nn3c(=O)cc(CN4CCN(C(=O)c5ccc(C(C)(C)C)cc5)CC4)nc3s2)cc1` the figure was inactive: -0.412%; with `O=C(Nc1ccc(F)cc1F)N1CCc2c(sc3c2CCCC3)C1c1ccc(F)cc1` (stereo not drawn), inactive: 5.67%; with `O=C(CC1C(=O)N(c2ccccc2)C(=O)N1CCC1=CCCCC1)Nc1ccc(F)cc1` (stereo not drawn), inactive: 1.65%.
In the case of `CCCN1CCN(CCNC(=O)Nc2ccc(OC)cc2OC)CC1`, the activation is inactive: -9.46%.
On to `CC(C)C[C@H](NC(=O)[C@H](O)[C@H](N)Cc1ccccc1)C(=O)O`, for which the activation was inactive: -5.17%.
Regarding `COCCNC(=O)Cn1nc(N2CCN(c3ccccc3OC)CC2)ccc1=O`, the activation was inactive: -0.183%.
`CCOc1ccc(NC(=O)N2CCN(S(=O)(=O)c3ccc4c(ccn4C)c3)CC2)cc1`: the activation is inactive: 4.82%.
As for `COc1ccccc1N(CC(=O)NCCSCc1ccccc1)S(=O)(=O)c1ccc(C)cc1`, the activation is inactive: -7.75%.
With `Cc1ccccc1NC(=O)CSc1nc(-c2ccccc2C)nc2cc(=O)[nH]n12` the figure was inactive: -32.4%; with `COc1ccc(NC(=O)Cn2c(=O)n(C(C)C)c(=O)c3oc4ccccc4c32)cc1Cl`, inactive: -10.7%; with `O=C1CN(C(=O)Cc2ccc(F)cc2)C(c2ccccc2)c2cc(Cl)ccc2N1` (stereo not drawn), inactive: -26%.
As to `CC(=O)N1CCN(c2csc3ccc(F)cc3c2=O)CC1`, the activation was inactive: -19.1%.
With `CCc1ccc(C(=O)c2cn(CC(=O)Nc3ccc(F)cc3)c3ccc(OC)cc3c2=O)cc1`, the activation is inactive: 0.177%.
With `Cc1nn(-c2ccccc2)c(OC(=O)C(C)C)c1Sc1ccccc1`, the activation was inactive: -2.37%.
Consider `CCc1ccccc1N(C)C(=O)Cc1c(C(=O)O)c(C)cn1C`, for which the activation was inactive: 3.35%.
For the compound `Brc1cccc(CNCCSc2nnnn2-c2ccccc2)c1`, the activation is inactive: -13.1%.
With `COc1ccc(-c2cc(C(C)=O)c(C)n2CCC(=O)NCc2ccccc2OC)cc1` the figure was inactive: -25.8%; with `Cc1ccc(NC(=O)Cc2ccc(-n3c(C)nc4cccnc43)cc2)cc1C`, inactive: 0.105%.
Take `Cc1cc(C)cc(OCC(=O)NCCc2nc3ccccc3[nH]2)c1`: the activation is inactive: -9.63%.
`Cc1cc(C)c(NC(=O)C(C)n2nc(-c3ccc(C)c(C)c3)ccc2=O)c(C)c1` (stereo not drawn): the activation was inactive: -1.53%.
Take `CCCCOc1ccc(S(=O)(=O)Nc2ccc(-c3ccc(N4CCCCCC4)nn3)cc2)cc1`: the activation was inactive: -2.41%.
With `COc1cccc(CNC(=O)CCc2cn(Cc3ccccc3Cl)c3ccccc23)c1`, the activation was inactive: -14.3%.
Regarding `Cc1ccc(Cl)cc1NC(=O)C(C)n1nnc2sc(-c3ccccc3)cc2c1=O` (stereo not drawn), the activation was inactive: -6.84%.
Consider `CCOC(=O)c1cc(-c2ccccc2)n(CCCC(=O)Nc2ccc(C(C)C)cc2)c1C`, for which the activation was inactive: -24.4%.
With `COC(=O)c1cccc(-n2c(CCC(=O)O)ccc2-c2ccc(OC)cc2)c1` the figure was inactive: -24.7%; with `O=C(COc1ccc2oc3c(c2c1)CCCC3)Nc1ccc(Br)cc1`, inactive: 5.81%.
With `CCOC(=O)c1c(C)oc2ncnc(N3CCN(c4ccccc4OC)CC3)c12` the figure was inactive: -25.9%; with `COc1ccc(Cn2c(SCc3ccc(C(=O)NC4CCCC4)cc3)nc3ccncc32)cc1`, inactive: -39.3%; with `CCOc1ccc(NC(=O)CSc2nccn2Cc2ccco2)cc1`, inactive: -14.5%.
For `COc1ccc(-c2nc3ccccc3s2)cc1NC(=O)COc1ccc(C)cc1` the value was inactive: -4.64%; for `COc1ccc(OCC(=O)OCc2cc(=O)n3cc(C)sc3n2)cc1`, inactive: -11%; for `CCC1CCCCN1S(=O)(=O)c1ccc(C(=O)Nc2sc3c(c2C(=O)NC)CCC3)cc1` (stereo not drawn), inactive: -8.2%.
Regarding `CCOCCCN1C(=O)CN(C2CCCCCC2)C(=O)C1c1ccc(OC(C)C)c(OC)c1` (stereo not drawn), the activation was inactive: -21.4%.
For `CCc1ccccc1NC(=O)c1ccc2c(O)c(S(=O)(=O)c3ccccc3)c(=O)[nH]c2c1`, the activation was inactive: -25.2%.
For `COc1ccccc1CNC(=O)c1oc2ccc(S(=O)(=O)N3CCCCC3)cc2c1C`, the activation was inactive: 4.84%.
Regarding `COc1ccc(NC(=O)c2cc3nc(-c4ccc(C)c(C)c4)cc(C(F)(F)F)n3n2)cc1`, the activation is inactive: -6.64%.
Take `Cc1ccc(CSc2ncc(Cl)c(C(=O)NCCc3ccc(S(N)(=O)=O)cc3)n2)cc1`: the activation is inactive: 39.7%.
`CCOC(=O)C1CCN(C(=O)CCS(=O)(=O)c2cc3c(cc2Cl)NC(=O)CO3)CC1`: the activation was inactive: -13.6%.
For the compound `CC(C)(C)NCC(O)COc1cccc2c1CCC(=O)N2` (stereo not drawn), the activation was inactive: -5.81%.
On to `COc1ccc(NC(=O)CSc2nc(-c3ccc(OC)cc3)[nH]c2-c2ccc(OC)cc2)cc1`, for which the activation was inactive: -18%.
